Experimental data reported in the RNAGym collection of RNA variant scans (doi:10.1093/nar/gkz1192).
The source gives no read counts; variants with many changes may rest on few reads.

B1: CPEB3 Ribozyme (parent)
chain: UAACAGGGGGCCACAGCAGAAGCGUUCACGUCGCAGCCCCUGUCAGAUUCUGGUGAAUCUGCGAAUUCUGCUGUAUAUCUC

Variants of: B1
Experiment: self-cleavage, relative activity (ratio to wild type); higher = more cleavage; in vitro, sequencing
Procedure, shortened: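 After error-prone PCR and barcoding, CPEB3 ribozyme mutant libraries were transcribed with T7 RNA polymerase at 37°C for 5 hours, then given 15 min with DNase I before an EDTA stop, and they cleaved during both steps. Reverse transcription with template switching preceded Illumina sequencing. Relative activity divides a variant's cleaved/total read fraction by the unmutated ribozyme's. At least 5 reads were required per variant, and three batches were averaged.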
For A15G G22A A47U U54G U66A U78A, the self-cleavage was 0.08. In the case of A15G U26C C34A U72A A75U U78C, the self-cleavage is reported as 0.14. For A15G G42C G52A G63U G70A A77U U80C, the self-cleavage was 0.19. For A15G U25C A75G, the self-cleavage was 0.25. Work on A15G U26A C29G yielded a self-cleavage of 0.08. For A15G U26A U41G A47G U54C, the self-cleavage was 0.05. Work on A15G C38U C68U yielded a self-cleavage of 0.49. In the case of A15G G16A A18C U49C A64G U78C, the self-cleavage is reported as 0.05. For A15G C39U U69C U72A A75U, the self-cleavage was 0.07. In the case of A15G G16C U31C U69G, the self-cleavage is reported as 0.2. With A15G G22C U78C the self-cleavage was 0.21. With A15G G19U U43C U48A the self-cleavage was 0.05. In the case of A15G U26C U49A G52A, the self-cleavage is reported as 0.29. Work on A15G G30C A57G yielded a self-cleavage of 0.22. For A15G U41C U49A U51A, the self-cleavage was 0.46. In the case of A15G U25C C44U U67A, the self-cleavage is reported as 0.19. In the case of A15G U25C U80C, the self-cleavage is reported as 0.21. A15G U41C U66C showed a self-cleavage of 0.31. A15G U26C U43C showed a self-cleavage of 0.66. Variant A15G C44U U48C C62A has a self-cleavage of 0.24. For A15G U25A U31A U43C C50A, the self-cleavage was 0.22. Work on A15G U26C C32A A35G A57U U60C yielded a self-cleavage of 0.11. A15G G30U U31G U41G A47G showed a self-cleavage of 0.08. A15G U26C U66C U78C showed a self-cleavage of 0.29. Work on A15G U43A G52A U69C yielded a self-cleavage of 0.19. In the case of A15G U41C U78C, the self-cleavage is reported as 1.08. A15G G19U A56U gave a self-cleavage of 0.16. For A15G U25C A47G, the self-cleavage was 0.18. A15G U26C C40A U41C U69C gave a self-cleavage of 0.07. Work on A15G U26G U74C U80A yielded a self-cleavage of 0.46. A15G U41C U51A A56U U60C showed a self-cleavage of 0.44. A15G U26A U74C showed a self-cleavage of 1.1. In the case of A15G U26C A45C U51C U69A, the self-cleavage is reported as 0.11. For A15G U26C G30A C37A U54G U69A U80C, the self-cleavage was 0.05. For A15G U31C U66G U78A, the self-cleavage was 0.16. A15G G63A U69A U80C gave a self-cleavage of 0.19. A15G U41G U54C A57G showed a self-cleavage of 0.28. Work on A15G G24C A75G yielded a self-cleavage of 0.07. A15G U25C C68G U72C gave a self-cleavage of 0.2. Variant A15G G16A U31C U41C U51A U58C U74C has a self-cleavage of 0.11. For A15G U41C A64U U72G U78A, the self-cleavage was 0.21. For A15G U25C A64U A65G U72G U74A, the self-cleavage was 0. A15G U25A A65G showed a self-cleavage of 0.5. A15G G52C U80C showed a self-cleavage of 1.08. For A15G U31C U48C U60C C62A, the self-cleavage was 0.23. Work on A15G U31C U41C A57C U60C C68U C79A yielded a self-cleavage of 0.08. Variant A15G U31A A35G A64G has a self-cleavage of 1.25. A15G C50U U60A U66C showed a self-cleavage of 0.1. Variant A15G U26A A75C has a self-cleavage of 0.73. For A15G G16A A77U, the self-cleavage was 0.13. For A15G U25C U67A, the self-cleavage was 0.27. With A15G U25C U60C G70A the self-cleavage was 0.07. For A15G U31A A35G A57G, the self-cleavage was 1.19. For A15G G16U U25C A35G U66C U72A U78C, the self-cleavage was 0.04. Work on A15G C44U U69C U74C yielded a self-cleavage of 0.09. A15G G46U A56U showed a self-cleavage of 0.26. For A15G U31C U69A, the self-cleavage was 0.1. Work on A15G U25C G36U A45G yielded a self-cleavage of 0.06. Variant A15G U26G U41C A57G has a self-cleavage of 0.12. Variant A15G C38A U43A has a self-cleavage of 0.23. Variant A15G G36A A45G U60C has a self-cleavage of 0.09. With A15G U43C A45U U49A the self-cleavage was 0.16. In the case of A15G U26C A35U U54C U78C, the self-cleavage is reported as 0.43. A15G U26C A45C gave a self-cleavage of 0.37. A15G G63U A65G gave a self-cleavage of 0.28. Work on A15G C34A A65G yielded a self-cleavage of 0.14. Variant A15G C40A A75G has a self-cleavage of 0.26. Work on A15G U25C U31C A35C yielded a self-cleavage of 0. Variant A15G G33C U54C A65G U66C has a self-cleavage of 0.11. Variant A15G C37U U43C U48A U54A G55U has a self-cleavage of 0.14. In the case of A15G U26C A45G A64G U66C U80C, the self-cleavage is reported as 0.1. For A15G C34A C62U, the self-cleavage was 0.08. Work on A15G U26A U41A A45G A64G U74A yielded a self-cleavage of 0.22. With A15G G19U C38A A75U the self-cleavage was 0.14. Work on A15G G30A A45G G46A U66A U78C yielded a self-cleavage of 0.23. Variant A15G U25G A77U has a self-cleavage of 0.16. Work on A15G U41A U49C A64U U80G yielded a self-cleavage of 0.37. Variant A15G C40U U74C has a self-cleavage of 0.54. Work on A15G U25C U41G U51A yielded a self-cleavage of 0.5. For A15G C39G U58C U76A C81U, the self-cleavage was 0.01. With A15G U41A U54A A64U U67A U69C the self-cleavage was 0. In the case of A15G C32A U41A A45G G55U U69A, the self-cleavage is reported as 0.09. A15G U26C A45U U48C A56G showed a self-cleavage of 0.06. With A15G U25C U67C U69A A77U the self-cleavage was 0.15. Variant A15G G33U A35G has a self-cleavage of 0.23. A15G U26C A28G U41C U67C gave a self-cleavage of 0.04. For A15G G53A A56G U60C U67C, the self-cleavage was 0.21. In the case of A15G U26C U67C, the self-cleavage is reported as 0.23. For A15G U26C A35C G53C, the self-cleavage was 0.16. A15G G46A G55A A65G gave a self-cleavage of 0.08. With A15G C39U U60C the self-cleavage was 0.46. With A15G U31G U49C the self-cleavage was 0.17. In the case of A15G G24A U67A, the self-cleavage is reported as 0.24. With A15G U31A U41C U54A A56C U69C the self-cleavage was 0.17. With A15G G33A U49A A64U U66C the self-cleavage was 0.15. Work on A15G G33A C37U A57G yielded a self-cleavage of 0.08. For A15G G33A U69A U76C A77U, the self-cleavage was 0.11. A15G U25C A47G U60A showed a self-cleavage of 0.29. A15G U41C U43A A75G A77G showed a self-cleavage of 0.51. Work on A15G G22U U48C U72A A75U yielded a self-cleavage of 0.12. In the case of A15G G42A U69A, the self-cleavage is reported as 0.16. A15G G52A A75U U80C gave a self-cleavage of 1.05. For A15G U31A U43A, the self-cleavage was 0.43. In the case of A15G G30U G46A C62U U69A, the self-cleavage is reported as 0.17. A15G U25C C29G A35G gave a self-cleavage of 0.08. For A15G G24A U74C, the self-cleavage was 0.09. A15G U25C A47G A56G gave a self-cleavage of 0.4. A15G C32U A35U gave a self-cleavage of 0.11. With A15G C39U A65G U78G the self-cleavage was 0.14. A15G U25C A35U A64U U66C U78A showed a self-cleavage of 0.19. A15G U25C A47U U72C A77G gave a self-cleavage of 0.23. Variant A15G C39U A64G has a self-cleavage of 0.34. For A15G U43A C62G, the self-cleavage was 0.23. In the case of A15G U25C A75G U80C, the self-cleavage is reported as 0.17. Work on A15G G22C U41A U60G yielded a self-cleavage of 0.27. For A15G G30U U66C, the self-cleavage was 0.34. A15G C44U A57U A64G G70C U80C showed a self-cleavage of 0.13. For A15G G30U U58C A75G, the self-cleavage was 0.11. Variant A15G U41C U51C A56U G61A A65G has a self-cleavage of 0.29. Variant A15G G33A U48C U76C has a self-cleavage of 0.08. Work on A15G G33U U60C C79U yielded a self-cleavage of 0.14. Variant A15G U26C U51A has a self-cleavage of 0.39. In the case of A15G U41A U48C, the self-cleavage is reported as 0.22. A15G C44G U51A G55A U66A U72C gave a self-cleavage of 0.08. With A15G G16C A20G A57G U78A the self-cleavage was 0.05. Variant A15G U25C A64U U66C has a self-cleavage of 0.41. A15G U26A A64G U78C showed a self-cleavage of 0.22. In the case of A15G C62U U80A, the self-cleavage is reported as 0.24. A15G G63A U80A showed a self-cleavage of 1.16. Work on A15G U26C U31C A47U yielded a self-cleavage of 0.41. A15G U41C A75G A77G gave a self-cleavage of 0.71. A15G U25C U58C U72A showed a self-cleavage of 0.07. A15G U41G U60A showed a self-cleavage of 0.04. For A15G G19C A28G G30C G36C U51C, the self-cleavage was 0.11. In the case of A15G G19C A28U G52A, the self-cleavage is reported as 0.22. With A15G U31C A45C U49C U72C U78A the self-cleavage was 0.2. In the case of A15G U31C A64G, the self-cleavage is reported as 0.14. With A15G U26A A45U U76A A77G the self-cleavage was 0.28. A15G U26C G30C U80A gave a self-cleavage of 0.04. A15G G30C A35U A57G U58A U66C U80C showed a self-cleavage of 0.06. For A15G C32U U41A U49A U66C U72A, the self-cleavage was 0.06. A15G U26A U41G A56G showed a self-cleavage of 0.25. For A15G C38U U48A U74A, the self-cleavage was 0.42. A15G C59A U72A gave a self-cleavage of 0.17. In the case of A15G U31C U43G U69C G70A, the self-cleavage is reported as 0.15. Work on A15G G24U U26C A35G yielded a self-cleavage of 0.17. Work on A15G U31C A65U yielded a self-cleavage of 0.16. In the case of A15G G42A A47U A56G U69C, the self-cleavage is reported as 0.16. With A15G U25C C27A A56G U66C the self-cleavage was 0.16. With A15G U43C A56G the self-cleavage was 0.37. Work on A15G C34A C39G U69C yielded a self-cleavage of 0.04. A15G C39U A45G A64U showed a self-cleavage of 0.1. In the case of A15G G42A U43C A45G, the self-cleavage is reported as 0.19. With A15G U31G U60A the self-cleavage was 0.28. Work on A15G U41C U49C U60C yielded a self-cleavage of 0.07. With A15G U31A G36A A64G the self-cleavage was 0.45. In the case of A15G G30A A35G, the self-cleavage is reported as 0.25. In the case of A15G G24C U66C U78C, the self-cleavage is reported as 0.11. A15G G19U G36U U41C gave a self-cleavage of 0.09. For A15G U41C U80G, the self-cleavage was 1.03. A15G U25C A64G U72G showed a self-cleavage of 0.08. A15G U26A U72C A77G showed a self-cleavage of 1.01. A15G U43A A64C G70A U72C showed a self-cleavage of 0.35. For A15G G19U U58G A64U U66C U72A, the self-cleavage was 0.07. A15G U25A U26C A35U A45U A77G gave a self-cleavage of 0.14. Variant A15G U26A U41C A45U U60A U67A has a self-cleavage of 0.1. A15G C40A U43C U49C G53A A65U U74C showed a self-cleavage of 0.15.
